This is an account of results in ChEMBL document CHEMBL5606458, “ASAP - ZIKV NS2B-NS3 protease fluorescence single point” (2024).

About 160 (5.9%) of roughly 2,700 compounds showed an effect of 50% or more. The list shows a part of the results.

The term inhibition denotes the relative decrease from the control value, in per cent.

This assay has as its target Nonstructural protein 3 (Zika virus) (UniProt A0A024AXB9).
[1] abbreviates: PRVABC59, Concentration 15.0 uM, Number of replicates 1.0.
The mark [2] stands for this setting: PRVABC59, Concentration 50.0 uM, Number of replicates 1.0.

Chain of UniProt A0A024AXB9 (A0A024AXB9 as listed by the source): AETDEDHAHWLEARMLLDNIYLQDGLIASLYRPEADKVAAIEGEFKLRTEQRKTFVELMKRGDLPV

With `O=C(c1cc(Cl)ccc1NS(=O)(=O)c1ccc(Oc2ccccc2Cl)cc1)N(CCc1ccccc1)C1CCCC1`, the inhibition under setting [1] turned out to be 16.7%.
For `Cc1ccc2c(c1)C(=O)NCCN2S(=O)(=O)c1ccc(Oc2ccccc2Cl)cc1`, the inhibition (PRVABC59, Concentration 49.5 uM, Number of replicates 2.0, Standard deviation 4.7217937817636475 %) came out at 3.32%; the inhibition (PRVABC59, Concentration 99.01 uM, Number of replicates 2.0, Standard deviation 1.4736147195350457 %) was 1.38%; the inhibition (PRVABC59, Concentration 198.0 uM, Number of replicates 2.0, Standard deviation 0.7368073492308107 %) was found to be 0.577%.
On to `Cc1cc(CO)c2cccc(CC(=O)N3CCC(CN)CC3)c2n1`, for which the inhibition by setting is: (PRVABC59, Concentration 49.95 uM, Number of replicates 2.0, Standard deviation 0.5547725606279245 %) 25.3%; (PRVABC59, Concentration 99.9 uM, Number of replicates 2.0, Standard deviation 0.00508999060096365 %) 39.1%.
Take `O=C(Nc1ccc(C(F)(F)F)cc1[N+](=O)[O-])c1cc(Cl)ccc1NS(=O)(=O)c1ccc(Oc2ccccc2Cl)cc1`: the inhibition under setting [1] was found to be 28.1%.
As to `COc1cc(CS(=O)(=O)CCc2ccc(F)cc2)nc(N2CCNCC2)n1`, the inhibition is, setting by setting: (PRVABC59, Concentration 49.5 uM, Number of replicates 2.0, Standard deviation 5.345388786115782 %) -2.81%; (PRVABC59, Concentration 99.01 uM, Number of replicates 2.0, Standard deviation 2.7752057703205737 %) 4.63%; (PRVABC59, Concentration 198.0 uM, Number of replicates 2.0, Standard deviation 2.7033423590364065 %) 7.51%.
`O=C(NCCn1cc([C@H]2CCOC2)cn1)c1cnn([C@H]2CCCNC2)c1`: the inhibition is, setting by setting: (PRVABC59, Concentration 49.5 uM, Number of replicates 2.0, Standard deviation 2.425054936954433 %) -1.94%; (PRVABC59, Concentration 99.01 uM, Number of replicates 2.0, Standard deviation 3.207528396546797 %) -2.16%; (PRVABC59, Concentration 198.0 uM, Number of replicates 2.0, Standard deviation 3.920539297933569 %) -2.07%.
Consider `O=Cc1ccc(N2CCC(C(=O)N[C@H]3CCOc4ccc(F)cc43)CC2)cc1`, for which, under setting [2], the inhibition is 6.75%.
In the case of `CC(C)(C)c1cc(NC(=O)C2CCN(c3ccc(C=O)cc3)CC2)n(-c2ccccc2)n1`, under setting [2], the inhibition came to 14.4%.
As to `O=Cc1ccc(N2CCC(C(=O)NCCN3C(=O)CSC3=O)CC2)cc1`, the inhibition under setting [2] is 24.5%.
As for `Cc1cc(CO)c2cccc(Cc3cccc(C(=O)NCc4ccc(C(N)=O)cc4)c3)c2n1`, where the note is “PRVABC59, Concentration 49.95 uM, Number of replicates 2.0, Standard deviation 1.793263436091943 %”, the inhibition was -9.88%.
As for `CN(Cc1csc(-c2ccccc2)n1)C(=O)c1cc(Cl)ccc1NS(=O)(=O)c1ccc(Oc2ccccc2Cl)cc1`, under setting [1], the inhibition came out at 22.3%.
Regarding `O=Cc1ccc(N2CCC(C(=O)NC[C@@H](c3ccc(Cl)cc3)N3CCCC3)CC2)cc1`, the inhibition under setting [2] came to 18.7%.
Still for that read-out and setting: then `CC(C)CN1CCN(C(=O)C2CCN(c3ccc(C=O)cc3)CC2)[C@@H](C)C1=O`, with 21.2%; and `CN1CCC(N(C(=O)C2CCN(c3ccc(C=O)cc3)CC2)C2CCN(C)CC2)CC1`, with 25%.
Same read-out and setting: the same measure for `CC(C)c1cccc(C(C)C)c1NC(=O)C1CCN(c2ccc(C=O)cc2)CC1`: 22.1%.
For `CC(C)COc1ccc(CNC(=O)C2CCN(c3ccc(C=O)cc3)CC2)cc1`, where the note is “PRVABC59, Concentration 10.0 uM, Number of replicates 1.0”, the inhibition was -6.54%.
Regarding `O=C(NCCc1ccc(Cl)c(Cl)c1)c1cc(Cl)ccc1NS(=O)(=O)c1ccc(Oc2ccccc2Cl)cc1`, the inhibition under setting [1] was found to be 32.4%.
As for `CC(C)Cn1cccc(C(=O)NC2CCN(C)CC2)c1=O`, the inhibition (PRVABC59, Concentration 49.5 uM, Number of replicates 2.0, Standard deviation 1.6566870792545731 %) was -3.87% and the inhibition (PRVABC59, Concentration 99.01 uM, Number of replicates 2.0, Standard deviation 3.145993850206922 %) was -6.69%.
Consider `O=C(c1cc(Cl)ccc1NS(=O)(=O)c1ccc(Oc2ccccc2Cl)cc1)N1CCC(c2ccncc2)CC1`, for which the inhibition under setting [1] amounted to 10.5%.
Regarding `O=Cc1ccc(N2CCC(C(=O)N3CCN(Cc4c(F)cccc4Cl)CC3)CC2)cc1`, under setting [2], the inhibition is 21.1%.
Consider `C[C@@H](NCc1ccc(C(N)=O)cc1)c1ccc(OCc2ccccc2)cc1`, for which the inhibition reads like this: (PRVABC59, Concentration 49.5 uM, Number of replicates 2.0, Standard deviation 1.6931432392061019 %) -1.14%; (PRVABC59, Concentration 99.01 uM, Number of replicates 2.0, Standard deviation 0.829849214716914 %) -0.792%; (PRVABC59, Concentration 198.0 uM, Number of replicates 2.0, Standard deviation 0.6542639054605588 %) -1.9%.
`O=C(NC1CCN(Cc2ccccc2)CC1)c1cc(Cl)ccc1NS(=O)(=O)c1ccc(Oc2ccccc2Cl)cc1`: under setting [1], the inhibition is 8.32%.
For the compound `CCS(=O)(=O)c1ccc(CNC(=O)c2cc(Cl)ccc2NS(=O)(=O)c2ccc(Oc3ccccc3Cl)cc2)cc1`, the inhibition under setting [1] amounted to 33.1%.
On to `C[C@@H]1CCN(Cc2ccccc2)C[C@@H]1N(C)C(=O)c1cc(Cl)ccc1NS(=O)(=O)c1ccc(Oc2ccccc2Cl)cc1`, for which the inhibition under setting [1] came to 20.9%.
`CCOCCN(CCOCC)C(=O)C1CCN(c2ccc(C=O)cc2)CC1`: the inhibition under setting [2] was 26.9%.
On to `O=C(c1cc(Cl)ccc1NS(=O)(=O)c1ccc(Oc2ccccc2Cl)cc1)N1CCC(Oc2cnccn2)CC1`, for which, under setting [1], the inhibition stood at 10.5%.
Regarding `C[C@@H](NC(=O)OCc1ccccc1)C(=O)Nc1cccc(CN)c1`, the inhibition (PRVABC59, Concentration 49.5 uM, Number of replicates 2.0, Standard deviation 0.22300909071478295 %) is -5.65%; the inhibition (PRVABC59, Concentration 99.01 uM, Number of replicates 2.0, Standard deviation 0.06482809074333463 %) is -3.85%; the inhibition (PRVABC59, Concentration 198.0 uM, Number of replicates 2.0, Standard deviation 0.9413049329503056 %) is -1.69%.
For `COCCN(C(=O)C1CCN(c2ccc(C=O)cc2)CC1)C1CCN(C)CC1`, under setting [2], the inhibition is 30.4%.
On to `O=C(NC[C@H]1CCCN(C2CCCC2)C1)c1cc(Cl)ccc1NS(=O)(=O)c1ccc(Oc2ccccc2Cl)cc1`, for which the inhibition under setting [1] came to 19.4%.
Regarding `CCn1ccnc(N2CCC[C@H](c3c[nH]c4ccccc34)C2)c1=O`, the inhibition is, setting by setting: (PRVABC59, Concentration 50.0 uM, Number of replicates 2.0, Standard deviation 0.5152475832691962 %) 10.2%; (PRVABC59, Concentration 100.0 uM, Number of replicates 2.0, Standard deviation 1.199680708656035 %) 10.1%.
As to `CS(=O)(=O)c1ccc(CN2CCC(c3c[nH]c4cccnc34)CC2)cc1`, the inhibition came out at 1.63% (PRVABC59, Concentration 49.5 uM, Number of replicates 2.0, Standard deviation 0.19659195183033668 %); 5.71% (PRVABC59, Concentration 99.01 uM, Number of replicates 2.0, Standard deviation 0.06397048666983496 %); 11.4% (PRVABC59, Concentration 198.0 uM, Number of replicates 2.0, Standard deviation 0.5273656451530484 %).
Regarding `COc1ccc2nc(C)c(C)nc2c1N`, the inhibition (PRVABC59, Concentration 99.9 uM, Number of replicates 2.0, Standard deviation 7.57309376016941 %) was -8.22%.
With `CN1CCN(c2ccccc2NC(=O)c2cc(Cl)ccc2NS(=O)(=O)c2ccc(Oc3ccccc3Cl)cc2)CC1`, the inhibition under setting [1] amounted to 13.9%.
On to `O=Cc1ccc(N2CCC(C(=O)N3CCC4(CC3)NC(=O)NC4=O)CC2)cc1`, for which the inhibition under setting [2] was 27.1%.
Consider `Cc1cc(CO)c2cccc(Cc3cccc(NC(=O)COc4cccc(CN)c4)c3)c2n1`, for which the inhibition reads like this: (PRVABC59, Concentration 49.95 uM, Number of replicates 2.0, Standard deviation 2.9163768079952073 %) 7.92%; (PRVABC59, Concentration 99.9 uM, Number of replicates 2.0, Standard deviation 0.6820142334571017 %) 25.1%.
For the compound `CCCCCC(=O)N[C@@H](Cc1ccc(CN)cc1)C(=O)N1CCCCC1`, the inhibition is 0.292% (PRVABC59, Concentration 49.5 uM, Number of replicates 2.0, Standard deviation 4.431780738958108 %); 0.545% (PRVABC59, Concentration 99.01 uM, Number of replicates 2.0, Standard deviation 4.3633069458185805 %); -0.164% (PRVABC59, Concentration 198.0 uM, Number of replicates 2.0, Standard deviation 3.524502052628708 %).
With `CCN(CC)S(=O)(=O)c1ccc(NC(=O)c2cc(Cl)ccc2NS(=O)(=O)c2ccc(Oc3ccccc3Cl)cc2)cc1`, the inhibition under setting [1] amounted to 27.6%.
As to `O=Cc1ccc(N2CCC(C(=O)Nc3ccc(Br)c(C(F)(F)F)c3)CC2)cc1`, the inhibition under setting [2] worked out at 22.5%.
`Cc1cc(CO)c2cccc(Cc3cccc(C(=O)NCC(N)=O)c3)c2n1`: the inhibition was -5.74% (PRVABC59, Concentration 49.95 uM, Number of replicates 2.0, Standard deviation 1.0591786257609663 %) and -1.72% (PRVABC59, Concentration 99.9 uM, Number of replicates 2.0, Standard deviation 0.9490662751035868 %).
Take `O=Cc1ccc(N2CCC(C(=O)NCCc3cc(F)cc(F)c3)CC2)cc1`: under setting [2], the inhibition was found to be 19.3%.
Turning to `O=Cc1ccc(N2CCC(C(=O)N3CCC(Cc4ccccc4)CC3)CC2)cc1`, the inhibition under setting [2] came to 24.7%.
For `CCN(CCOc1ccccc1C)C(=O)c1cc(Cl)ccc1NS(=O)(=O)c1ccc(Oc2ccccc2Cl)cc1`, under setting [1], the inhibition was determined as 17.6%.
On to `Cn1cnc2[nH]c(C(=O)N3CC[C@H](c4c[nH]c5ccccc45)C3)cc21`, for which the inhibition is -4.9% (PRVABC59, Concentration 49.5 uM, Number of replicates 2.0, Standard deviation 1.7141597019957866 %); -5% (PRVABC59, Concentration 99.01 uM, Number of replicates 2.0, Standard deviation 3.0246149725930045 %); -4.2% (PRVABC59, Concentration 198.0 uM, Number of replicates 2.0, Standard deviation 3.2275240626655477 %).
Regarding `COc1ccc(S(=O)(=O)N2CCC(C(=O)Nc3nc4ccccc4s3)CC2)cc1`, the inhibition was found to be 4.02% (PRVABC59, Concentration 49.5 uM, Number of replicates 2.0, Standard deviation 3.281212488466362 %); 5.17% (PRVABC59, Concentration 99.01 uM, Number of replicates 2.0, Standard deviation 0.8753020409515783 %); 7.79% (PRVABC59, Concentration 198.0 uM, Number of replicates 2.0, Standard deviation 6.6794445217114635 %).
